Results taken from the supplement of paper PMC4967469.
Lines with a small IC50 respond at low doses; where the fit passes the top or lowest dose, that dose stands as a limit. AUC sums up the same curve from the lowest dose to the 256-fold higher top dose; the more sensitive the line, the further below 1. For part of these data: Any top dose called inferred was calculated from the reported fits. For part of these data: Where an entry number is given, a second screen of the drug exists; the two often differ.

Tests used:
Assay in all cases: Viability of human cancer cell lines after 72 h of drug (GDSC screen)
Bleomycin = compound: Cc1c(N)nc([C@H](CC(N)=O)NC[C@H](N)C(N)=O)nc1C(=O)N[C@H](C(=O)N[C@H](C)[C@@H](O)[C@H](C)C(=O)N[C@H](C(=O)NCCc1nc(-c2nc(C(=O)NCCC[S+](C)C)cs2)cs1)[C@@H](C)O)[C@@H](OC1OC(CO)C(O)C(O)C1OC1OC(CO)C(O)C(OC(N)=O)C1O)c1cnc[nH]1 [Bleomycin]
Experimental: (§1)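 Human cancer cell lines in 384-well plates, medium with 10% serum, drug for 72 h over a 256-fold dose range (nine 2-fold or five 4-fold steps up to the top dose). Adherent lines were fixed and stained with the nucleic acid dye Syto60, suspension lines read with resazurin; signal relative to control wells, capped at 0 and 100%. One two-parameter sigmoid per drug and line, fitted in a mixed model over all curves with the slope shared within a line.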

NSC-87877 = compound: O=S(=O)(O)c1ccc2cc(N=Nc3cc(S(=O)(=O)O)c4cccnc4c3O)ccc2c1 [NSC-87877]; details: top dose 16 µM; top dose inferred
Experimental: as §1

OSI-930 = compound: O=C(Nc1ccc(OC(F)(F)F)cc1)c1sccc1NCc1ccnc2ccccc12 [OSI-930]; details: top dose 10.24 µM
Experimental: as §1

Masitinib = compound: Cc1ccc(NC(=O)c2ccc(CN3CCN(C)CC3)cc2)cc1Nc1nc(-c2cccnc2)cs1 [Masitinib]; details: top dose 20 µM
Experimental: as §1

BX-912 = compound: O=C(Nc1cccc(Nc2ncc(Br)c(NCCc3cnc[nH]3)n2)c1)N1CCCC1 [BX-912]; details: top dose 10.24 µM; top dose inferred
Experimental: as §1

LAQ824 = compound: O=C(/C=C/c1ccc(CN(CCO)CCc2c[nH]c3ccccc23)cc1)NO [LAQ824]; details: top dose 1.024 µM; top dose inferred
Experimental: as §1

VNLG/124 = compound: CCCC(=O)OCc1ccc(OC(=O)/C=C(C)/C=C/C=C(C)/C=C/C2=C(C)CCCC2(C)C)cc1 [VNLG/124]; details: top dose 5.12 µM; top dose inferred
Experimental: as §1

Tamoxifen = compound: CC/C(=C(\c1ccccc1)c1ccc(OCCN(C)C)cc1)c1ccccc1 [Tamoxifen]; details: top dose 5 µM
Experimental: as §1

Elesclomol = compound: CN(NC(=O)CC(=O)NN(C)C(=S)c1ccccc1)C(=S)c1ccccc1 [Elesclomol]; details: top dose 0.2 µM; top dose inferred
Experimental: as §1

[1] = top dose 50 µM, screen: GDSC drug entry 1378, top dose inferred
[2] = top dose 64 µM, screen: GDSC drug entry 190

| Cell Line | AUC (Bleomycin; [1]) | IC50 (Bleomycin; [1]) [µM] | AUC (Bleomycin; [2]) | IC50 (Bleomycin; [2]) [µM] | AUC (NSC-87877) | IC50 (NSC-87877) [µM] | AUC (OSI-930) | IC50 (OSI-930) [µM] | AUC (Masitinib) | IC50 (Masitinib) [µM] | AUC (BX-912) | IC50 (BX-912) [µM] | AUC (LAQ824) | IC50 (LAQ824) [µM] | AUC (VNLG/124) | IC50 (VNLG/124) [µM] | AUC (Tamoxifen) | IC50 (Tamoxifen) [µM] | AUC (Elesclomol) | IC50 (Elesclomol) [µM] |
| --- | --- | --- | --- | --- | --- | --- | --- | --- | --- | --- | --- | --- | --- | --- | --- | --- | --- | --- | --- | --- |
| H3255 (lung adenocarcinoma, adherent) | 0.828 | 39.2 | 0.9 | > 64 | 0.963 | > 16 | 0.977 | > 10.2 | 0.965 | > 20 | 0.945 | > 10.2 | 0.563 | 0.0986 | 0.981 | > 5.12 | 0.981 | > 5 | 0.862 | > 0.2 |
| HA7-RCC (kidney, adherent) | 0.418 | 1.82 | 0.152 | 0.29 | 0.983 | > 16 | 0.982 | > 10.2 | 0.904 | > 20 | 0.9 | > 10.2 | 0.345 | 0.0226 | 0.982 | > 5.12 | 0.932 | > 5 | 0.388 | 0.00593 |
| HAL-01 (lymphoblastic leukaemia, suspension) | 0.509 | 3.3 | 0.022 | < 0.25 | 0.978 | > 16 | 0.95 | > 10.2 | 0.828 | 10.4 | 0.914 | > 10.2 | 0.441 | 0.0451 | 0.957 | > 5.12 | 0.95 | > 5 | 0.444 | 0.00896 |
| HC-1 (hairy cell leukaemia, suspension) | 0.349 | 1.22 | 0.313 | 1.23 | 0.98 | > 16 | 0.913 | > 10.2 | 0.841 | 13.1 | 0.931 | > 10.2 | 0.375 | 0.0295 | 0.888 | > 5.12 | 0.979 | > 5 | 0.626 | 0.0274 |
| HCC-44 (lung adenocarcinoma, adherent) | 0.081 | < 0.195 | 0.198 | 0.523 | 0.986 | > 16 | 0.967 | > 10.2 | 0.868 | 17.5 | 0.887 | > 10.2 | 0.303 | 0.0182 | 0.946 | > 5.12 | 0.98 | > 5 | 0.605 | 0.0241 |
| HCC-827 (lung adenocarcinoma, adherent) | 0.719 | 14.5 | 0.926 | > 64 | 0.975 | > 16 | 0.985 | > 10.2 | 0.985 | > 20 | 0.928 | > 10.2 | 0.556 | 0.0935 | 0.983 | > 5.12 | 0.946 | > 5 | 0.676 | 0.042 |
| HD-MY-Z (Hodgkin lymphoma, adherent) | 0.133 | 0.214 | 0.238 | 0.697 | 0.972 | > 16 | 0.945 | > 10.2 | 0.863 | 17.4 | 0.819 | 5.89 | 0.711 | 0.254 | 0.97 | > 5.12 | 0.984 | > 5 | 0.387 | 0.00609 |
| HDLM-2 (Hodgkin lymphoma, suspension) | 0.828 | 30.2 | 0.69 | 13.5 | 0.973 | > 16 | 0.971 | > 10.2 | 0.965 | > 20 | 0.884 | > 10.2 | 0.343 | 0.0237 | 0.989 | > 5.12 | 0.985 | > 5 | 0.949 | > 0.2 |
| HH (T-cell leukaemia, suspension) | 0.843 | > 50 | 0.464 | 3.09 | 0.977 | > 16 | 0.85 | > 10.2 | 0.826 | 17.8 | 0.686 | 2.54 | 0.236 | 0.00828 | 0.624 | 0.786 | 0.88 | > 5 | 0.743 | 0.0798 |
| HMV-II (melanoma, adherent) | 0.767 | 22.6 | 0.154 | 0.252 | 0.912 | > 16 | 0.929 | > 10.2 | 0.735 | 6.93 | 0.942 | > 10.2 | 0.459 | 0.0482 | 0.982 | > 5.12 | 0.98 | > 5 | 0.786 | 0.107 |
| HN (head and neck, adherent) | 0.15 | 0.283 | – | – | 0.989 | > 16 | 0.988 | > 10.2 | 0.987 | > 20 | 0.975 | > 10.2 | 0.772 | 0.373 | 0.985 | > 5.12 | 0.984 | > 5 | 0.54 | 0.016 |
| HO-1-u-1 (head and neck, adherent) | 0.171 | 0.333 | 0.595 | 7.18 | 0.984 | > 16 | 0.987 | > 10.2 | 0.971 | > 20 | 0.965 | > 10.2 | 0.572 | 0.1 | 0.986 | > 5.12 | 0.987 | > 5 | 0.416 | 0.00742 |
| HOP-62 (lung adenocarcinoma, adherent) | 0.187 | 0.363 | 0.053 | < 0.25 | 0.986 | > 16 | 0.965 | > 10.2 | 0.885 | > 20 | 0.89 | > 10.2 | 0.29 | 0.0164 | 0.978 | > 5.12 | 0.984 | > 5 | 0.57 | 0.0194 |
